Key:
[1] = Study No. 140123: body weight of UACC-257 inoculated mice (cancer-induced weight loss); assay type: in vivo, Balb/c^nu/nu mice; details: 38 days
Method: FIG. 5: Treatment of cancer cachexia with anti-GDF-15 antibodies. […] The changes of the body weight are depicted in percent as compared to the starting body weight on day 0, for a period of 38 days.
(§1) Treatment of cancer-induced weight loss with anti-GDF-15 antibodies. In the underlying animal study No. 140123, 10 Balb/c^nu/nu mice per treatment group were subcutaneously inoculated with 10×10^6 UACC-257 cells per animal in a 1:1 volume ratio with matrigel (100 μl cells+100 μl matrigel). The animals were treated on the same day with the respective antibodies, as indicated below:
The study was carried out in a double-blinded manner for the treatment with the antibodies and for the treatment with PBS.

[2] = Gel electrophoresis and coomassie staining of antibodies used in study No. 140123; assay type: physicochemical
Method: FIG. 6: Coomassie stain of antibodies used in the study No. 140123.
The quality of the humanized anti-GDF-15 antibody B1-23-H1L5 used in the study was tested by using gel electrophoresis and coomassie staining of the antibodies (see FIG. 6).

hrGDF-15 = target: T1, hrGDF-15 (Homo sapiens, UniProt Q99988); assay: Colorimetric ELISA binding to coated hrGDF-15; details: serial 1:3 dilution from 333 ng/ml; in comparison to B12
T1 sequence (Q99988 with tags, fused parts or gaps limits assumed): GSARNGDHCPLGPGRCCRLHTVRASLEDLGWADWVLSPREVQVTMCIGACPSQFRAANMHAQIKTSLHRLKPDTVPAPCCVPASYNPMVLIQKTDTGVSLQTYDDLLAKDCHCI
Method: Additionally, by using a colorimetric assay, it was confirmed that all anti-GDF-15 antibodies used in the study bound to GDF-15 in a concentration-dependent manner. To determine the binding of B1-23 antibody variants to GDF-15, a […] ELISA experiment was performed. […] Therefore, Maxisorp 96 well plates (Nunc) were coated with hrGDF-15 (25 ng protein per well, 50 μl volume) over night at 4° C. The following day, plates were washed to remove unbound protein (3 times with 150 μl of PBS 0.05% Tween®) and non-specific binding sites were blocked with 150 μl of PBS 1% BSA for 2 hours at room temperature. Again, plates were washed and different variants of B1-23 test antibodies were applied (50 μl volume). To inquire specificity of the antibody binding, endpoint dilution was performed starting from 333 ng/ml and 1:3 serial dilution. As background control, PBS 1% BSA was applied. Following binding for 1 hour at room temperature, wells were washed as described above. As secondary antibody HRP conjugated Anti-human IgG (Life technologies, 1:5000) was applied for 1 hour at room temperature. Wells were washed as described above to remove unbound secondary antibody. […] For analysis, optical density at 450 nm was quantified using the ELISA reader (Tecan Sunrise) and the corresponding Magellan software.

[3] = Protein A elution at physiological pH and 10 fold concentration via spin columns, turbidity; assay type: physicochemical; details: TRIS Buffer at physiological pH, from 0.5 mg/ml
Method: FIG. 7: Improved solubility of the chimeric and the humanized antibody at physiological pH.
5 mg of antibody (B1-23, chimeric B1-23=“ChimB1-23”, H1L5) were loaded on Proteus™ protein A columns, eluted and collected in a TRIS Buffer at physiological pH. After elution, the quality of the purified antibodies was assessed by Coomassie Brilliant Blue gel analysis. The concentration of the eluted antibodies was measured photometrically as well as in a Bradford assay (Roti-Quant, Carl Roth, Karlsruhe, Germany). […] The antibodies were then 10 fold concentrated via spin columns (Centricon, MWCO 30). […] All concentrated eluates were then centrifuged for 5 min at 13000 rpm in order to precipitate antibody aggregates. The remaining amount of soluble antibodies was finally determined via Bradford assay from the supernatant.

[4] = Study No. 140123: feed consumption of UACC-257 inoculated mice; assay type: in vivo, Balb/c^nu/nu mice
Method: as §1
In addition to evaluating the mean body weight of the mice, the feed consumption of the mice was evaluated by pairwise comparisons of the study groups (Table 1).

[5] = Freeze/thaw and dilution experiments; assay type: physicochemical
[6] = Aggregation study: shaking 48 hours at room temperature, visual analysis for precipitates; assay type: physicochemical; details: PBS, no stabilizing proteins for H1L5
Method: In order to test the aggregation properties of anti-GDF-15 antibodies, antibody samples were shaken for 48 hours at room temperature in microcentrifuge tubes, and subsequently, the tubes were visually analyzed for aggregated antibody precipitates.

binding to GDF-15 in ELISA (hrGDF-15): clearly concentration-dependent binding
B1: H1L5: humanized anti-human GDF-15 mAb-B1-23; heavy chain SEQ ID No: 27, light chain SEQ ID No: 30 (antibody)
heavy: QITLKESGPTLVKPTQTLTLTCTFSGFSLSTSGMGVSWIRQPPGKGLEWLAHIYWDDDKRYNPTLKSRLTITKDPSKNQVVLTMTNMDPVDTATYYCARSSYGAMDYWGQGTLVTVSS[in this place human IgG1 constant region]
light: DIVLTQSPSFLSASVGDRVTITCKASQNVGTNVAWFQQKPGKSPKALIYSASYRYSGVPDRFTGSGSGTEFTLTISSLQPEDFAAYFCQQYNNFPYTFGGGTKLEIKRAPSVFIFPPSDEQLKSGTASVVCLLNNFYPREAKVQWKVDNALQSGNSQESVTEQDSKDSTYSLSSTLTLSKADYEKHKVYACEVTHQGLSSPVTKSFNRGEC
modifications: amino acid sequence of the heavy chain of the H1L5 humanized B1-23 anti-GDF-15 antibody; amino acid sequence of the light chain of the H1L5 humanized B1-23 anti-GDF-15 antibody
body weight change compared to day 0 [1]: increase in body weight | band appearance / aggregation in coomassie gel [2]: not prone to aggregation | aggregation after 10 fold concentration [3]: no signs of aggregation | Feed consumption per mouse and day ([4]; average over day 17-34 intervals, with standard deviation): 3.4 ± 0.2 g | feed consumption compared with groups which did not receive the anti-GDF-15 antibodies ([4]; mouse, in vivo): significantly higher | aggregation during dilution steps or freeze/thaw cycles [5]: did not aggregate | tendency to aggregate [6]: no tendency to aggregate
